From patent US20230250147A1 (Sanofi, published 2023)

T1: Mouse GLP-1R (mouse, UniProt O35659 22-463)
T1 sequence (looked up): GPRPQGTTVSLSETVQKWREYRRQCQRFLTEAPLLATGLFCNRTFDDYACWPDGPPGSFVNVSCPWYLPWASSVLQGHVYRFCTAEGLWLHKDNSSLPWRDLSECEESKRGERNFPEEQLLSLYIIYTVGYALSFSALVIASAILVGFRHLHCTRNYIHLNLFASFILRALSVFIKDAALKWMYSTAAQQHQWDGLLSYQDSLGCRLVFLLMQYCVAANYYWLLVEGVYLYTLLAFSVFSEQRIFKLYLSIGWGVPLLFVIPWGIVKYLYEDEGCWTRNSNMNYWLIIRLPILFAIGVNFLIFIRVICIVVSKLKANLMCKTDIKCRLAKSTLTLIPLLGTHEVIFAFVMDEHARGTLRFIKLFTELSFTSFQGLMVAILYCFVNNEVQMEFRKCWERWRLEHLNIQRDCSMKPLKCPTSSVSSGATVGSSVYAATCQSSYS

B1: GLP-1RA/FGF21 Fc fusion protein SEQ ID NO: 44 (Fc fusion)
chain: HGEGTFTSDLSIQLDEEAVRLFIEWLEATGPVSGAPPPSGGGGGGGSGGGGSGGGGSA[… human IgG1 Fc with changes …]GGGSGSAHPIPDSSPLLQFGGQVRQRYLYTDDACQTEAHLEIREDGTVGGAADQSPESLLQLKALKPGVIQILGVKTSRFLCQRPDGALYGSLHFDPEACSFRELLLEDGYNVYQSEAHGLPLHLPGCKSPHRDPAPRGPARFLPLPGLPPAPPEPPGILAPQPPDVGSSDPLSMVGSQGRSPSYAS
B2: GLP-1RA/FGF21 Fc fusion protein SEQ ID NO: 57 (Fc fusion)
chain: YGEGTFTSDKSQLLEKRLAHLFIEWLIAGGHSSGKPPPKGGGGGGGSGGGGSGGGGSA[… human IgG4 Fc with changes …]GGGSGSAHPIPDSSPLLQFGGQVRQRYLYTDDACQTEAHLEIREDGTVGGAADQSPESLLQLKALKPGVIQILGVKTSRFLCQRPDGALYGSLHFDPEACSFRELLLEDGYNVYQSEAHGLPLHLPGCKSPHRDPAPRGPARFLPLPGLPPAPPEPPGILAPQPPDVGSSDPLSMVGSQGRSPSYAS
B3: GLP-1RA/FGF21 Fc fusion protein SEQ ID NO: 71 (Fc fusion)
chain: FGEGTFTSDKSKQLEKRLVRLFIEWLIAGGHSSGKPPPKGGGGGGGSGGGGSGGGGSA[… human IgG4 Fc with changes …]GGGSGSAHPIPDSSPLLQFGGQVRQRYLYTDDACQTEAHLEIREDGTVGGAADQSPESLLQLKALKPGVIQILGVKTSRFLCQRPDGALYGSLHFDPEACSFRELLLEDGYNVYQSEAHGLPLHLPGCKSPHRDPAPRGPARFLPLPGLPPAPPEPPGILAPQPPDVGSSDPLSMVGSQGRSPSYAS
B4: GLP-1RA/FGF21 Fc fusion protein SEQ ID NO: 83 (Fc fusion)
chain: HGEGTFTSDKSKQLEKRLVRLFIEWLIAVGHSGKPPPKGGGGGGGSGGGGSGGGGSA[… human IgG4 Fc with changes …]GGGSGSAHPIPDSSPLLQFGGQVRQRYLYTDDACQTEAHLEIREDGTVGGAADQSPESLLQLKALKPGVIQILGVKTSRFLCQRPDGALYGSLHFDPEACSFRELLLEDGYNVYQSEAHGLPLHLPGCKSPHRDPAPRGPARFLPLPGLPPAPPEPPGILAPQPPDVGSSDPLSMVGSQGRSPSYAS
B5: GLP-1RA/FGF21 Fc fusion protein SEQ ID NO: 209 (Fc fusion)
chain: GHGEGTFTSDKSKQLEEEAVRLFIEWLKAGGPKKIRYSGGGGGGGSGGGGSGGGGSA[… human IgG4 Fc with changes …]GGGSGSAHPIPDSSPLLQFGGQVRQRYLYTDDACQTEAHLEIREDGTVGGAADQSPESLLQLKALKPGVIQILGVKTSRFLCQRPDGALYGSLHFDPEACSFRELLLEDGYNVYQSEAHGLPLHLCGNKSPHRDPAPRGPARFLPLPGLPPAPPEPPGILAPQPPDVGSSDPLSMVGSQGRSPSYAS
B6: GLP-1RA/FGF21 Fc fusion protein SEQ ID NO: 3 (Fc fusion)
chain: GHGEGTFTSDKSKQLEEEAVRLFIEWLKAGGPKKIRYSGGGGGGGSGGGGSGGGGSA[… human IgG4 Fc with changes …]GGGSGSAHPIPDSSPLLQFGGQVRQRYLYTDDACQTEAHLEIREDGTVGGAADQSPESLLQLKALKPGVIQILGVKTSRFLCQRPDGALYGSLHFDPEACSFRELLLEDGYNVYQSEAHGLPLHLPGCKSPHRDPAPRGPARFLPLPGLPPAPPEPPGILAPQPPDVGSSDPLSMVGSQGRSPSYAS
B7: GLP-1RA/FGF21 Fc fusion protein SEQ ID NO: 5 (Fc fusion)
chain: GHGEGTFTSDKSKQLEEEAVRLFIEWLKAGGPKKIRYSGGGGGGGSGGGGSGGGGSA[… human IgG4 Fc with changes …]GGGSGSAHPIPDSSPLLQFGGQVRQRYLYTDDACQTEAHLEIREDGTVGGAADQSPESLLQLKALKPGVIQILGVKTSRFLCQRPDGALYGSLHFDPEACSFRELLLEDGYNVYQSEAHGLPLHLPGCKSPHRDPAPRGPARFLPLPGLPPAPPEPPGILAPQPPDVGSSDPLSMVYPSQGRSPSYAS
B8: GLP-1RA/FGF21 Fc fusion protein SEQ ID NO: 203 (Fc fusion)
chain: HGEGTFTSDLSKQLEKELVRLFYEWLIKGGHKSGKPPPKGGGGGGGSGGGGSGGGGSA[… human IgG4 Fc with changes …]GGGSGSAHPIPDSSPLLQFGGQVRQRYLYTDDACQTEAHLEIREDGTVGGAADQSPESLLQLKALKPGVIQILGVKTSRFLCQRPDGALYGSLHFDPEACSFRELLLEDGYNVYQSEAHGLPLHLPGCKSPHRDPAPRGPARFLPLPGLPPAPPEPPGILAPQPPDVGSSDPLSMVGSQGRSPSYAS
B9: GLP-1RA/FGF21 Fc fusion protein SEQ ID NO: 204 (Fc fusion)
chain: HGEGTFTSDLSKQLEKELVRLFYEWLIKGGHSKGKPPPKGGGGGGGSGGGGSGGGGSA[… human IgG4 Fc with changes …]GGGSGSAHPIPDSSPLLQFGGQVRQRYLYTDDACQTEAHLEIREDGTVGGAADQSPESLLQLKALKPGVIQILGVKTSRFLCQRPDGALYGSLHFDPEACSFRELLLEDGYNVYQSEAHGLPLHLPGCKSPHRDPAPRGPARFLPLPGLPPAPPEPPGILAPQPPDVGSSDPLSMVGSQGRSPSYAS
B10: GLP-1RA/FGF21 Fc fusion protein SEQ ID NO: 205 (Fc fusion)
chain: HGEGTFTSDLSKQLEKELVRLFYEWLIAGGHKSQKPPPKGGGGGGGSGGGGSGGGGSA[… human IgG4 Fc with changes …]GGGSGSAHPIPDSSPLLQFGGQVRQRYLYTDDACQTEAHLEIREDGTVGGAADQSPESLLQLKALKPGVIQILGVKTSRFLCQRPDGALYGSLHFDPEACSFRELLLEDGYNVYQSEAHGLPLHLPGCKSPHRDPAPRGPARFLPLPGLPPAPPEPPGILAPQPPDVGSSDPLSMVGSQGRSPSYAS

Target: T2, human FGFR1c together with human beta-Klotho (KLB) (human, UniProt P11362 22-822; Q86Z14 1-1044)
Experiment: cell-based or functional assay

T2 sequence (P11362 22-822, chain 1 of 2): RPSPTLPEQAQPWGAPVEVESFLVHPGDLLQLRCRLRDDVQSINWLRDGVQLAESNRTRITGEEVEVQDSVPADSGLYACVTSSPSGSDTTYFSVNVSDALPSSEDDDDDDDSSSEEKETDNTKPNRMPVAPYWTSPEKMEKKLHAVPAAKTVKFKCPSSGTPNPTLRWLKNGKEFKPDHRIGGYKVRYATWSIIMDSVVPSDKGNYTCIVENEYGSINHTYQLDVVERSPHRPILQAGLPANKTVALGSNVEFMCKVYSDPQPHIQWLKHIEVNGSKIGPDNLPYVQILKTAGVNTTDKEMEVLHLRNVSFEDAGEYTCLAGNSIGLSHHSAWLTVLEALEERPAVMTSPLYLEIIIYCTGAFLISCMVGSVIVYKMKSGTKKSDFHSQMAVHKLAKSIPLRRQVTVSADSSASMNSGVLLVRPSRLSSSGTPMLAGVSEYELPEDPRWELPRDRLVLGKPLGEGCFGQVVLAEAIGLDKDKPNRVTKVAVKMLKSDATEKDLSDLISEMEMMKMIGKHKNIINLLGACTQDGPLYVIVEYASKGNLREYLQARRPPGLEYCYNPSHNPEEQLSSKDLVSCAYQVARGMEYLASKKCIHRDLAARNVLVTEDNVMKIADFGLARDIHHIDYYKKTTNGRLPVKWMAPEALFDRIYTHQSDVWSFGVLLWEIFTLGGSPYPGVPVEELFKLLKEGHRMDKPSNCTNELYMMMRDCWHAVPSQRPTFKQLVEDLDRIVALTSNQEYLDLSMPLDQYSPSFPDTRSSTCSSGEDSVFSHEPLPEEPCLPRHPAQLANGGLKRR
T2 sequence (Q86Z14 whole entry, chain 2 of 2, further chain): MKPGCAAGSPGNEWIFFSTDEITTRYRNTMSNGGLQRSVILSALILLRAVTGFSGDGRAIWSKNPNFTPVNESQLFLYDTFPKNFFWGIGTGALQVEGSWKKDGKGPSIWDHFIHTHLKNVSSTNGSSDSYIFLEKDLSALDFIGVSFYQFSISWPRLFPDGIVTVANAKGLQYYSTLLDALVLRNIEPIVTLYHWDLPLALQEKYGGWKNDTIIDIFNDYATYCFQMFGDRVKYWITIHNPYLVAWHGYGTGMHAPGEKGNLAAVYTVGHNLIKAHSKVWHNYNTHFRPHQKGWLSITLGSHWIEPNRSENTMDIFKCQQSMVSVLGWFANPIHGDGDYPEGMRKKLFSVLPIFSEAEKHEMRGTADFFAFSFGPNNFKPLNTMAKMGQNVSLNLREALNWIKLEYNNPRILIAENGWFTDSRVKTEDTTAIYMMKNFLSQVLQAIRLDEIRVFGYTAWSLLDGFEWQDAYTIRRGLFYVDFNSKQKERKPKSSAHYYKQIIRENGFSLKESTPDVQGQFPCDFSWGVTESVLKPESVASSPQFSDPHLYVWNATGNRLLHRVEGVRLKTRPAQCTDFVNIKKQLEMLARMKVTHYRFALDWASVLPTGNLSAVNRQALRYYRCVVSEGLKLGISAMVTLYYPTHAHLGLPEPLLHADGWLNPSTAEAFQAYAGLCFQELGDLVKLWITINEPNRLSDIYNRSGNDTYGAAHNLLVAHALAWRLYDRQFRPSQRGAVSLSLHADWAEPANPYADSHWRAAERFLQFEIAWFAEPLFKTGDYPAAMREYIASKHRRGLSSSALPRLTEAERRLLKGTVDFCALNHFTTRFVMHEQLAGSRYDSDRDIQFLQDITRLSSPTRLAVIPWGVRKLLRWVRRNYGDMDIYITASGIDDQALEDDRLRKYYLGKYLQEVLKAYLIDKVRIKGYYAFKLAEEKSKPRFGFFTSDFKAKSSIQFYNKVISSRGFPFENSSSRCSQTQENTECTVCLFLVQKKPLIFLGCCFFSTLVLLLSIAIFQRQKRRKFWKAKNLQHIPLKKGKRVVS

Binder | pFGFR ICW EC50 [nmol/L]
B1 | 30
B2 | 25.8
B3 | 13.6
B4 | 16.6
B5 | 66.3
B6 | 22.7
B7 | 20.4

Target: human glucagon-like peptide-1 (GLP-1) receptor (human, UniProt P43220 24-463)
Experiment: cell-based or functional assay

Binder | HTRF cAMP EC50 [pM]
B1 | 126
B2 | 21.1
B3 | 27.8
B4 | 29.3
B5 | 164
B6 | 212
B7 | 125
B8 | 96.9
B9 | 103
B10 | 131

Target: T1, Mouse GLP-1R
Experiment: cell-based or functional assay

Binder | HTRF cAMP EC50 [pM]
B1 | 325
B2 | 19.3
B3 | 53.5
B4 | 56
B5 | 118
B6 | 97.2
B7 | 96.5
B8 | 89.2
B9 | 65.7
B10 | 127

Target: Monkey GLP-1R (monkey)
Experiment: cell-based or functional assay

Binder | HTRF cAMP EC50 [pM]
B1 | 174
B2 | 15.7
B3 | 26.6
B4 | 28.1
B5 | 232
B6 | 279
B7 | 196
B8 | 102
B9 | 93.5
B10 | 113

Target: T2, human FGFR1c together with human …
Experiment: cell-based or functional assay
Remark: another data set of the same source

Binder | pERK ICW EC50 [nmol/L]
B1 | 5.4
B2 | 6.86
B3 | 6.19
B4 | 2.44
B5 | 27.9
B6 | 6.07
B7 | 6.84
